Data from ChEMBL document CHEMBL1961873, “Compounds: GSK PKIS; Assays: Nanosyn kinase panel” (2012).
Shown are results outside the selection of strong results, which stands elsewhere.

Biological target: Protein kinase C theta type (Homo sapiens) (UniProt Q04759)
Conditions: at 1 µM
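Also: each value is a mean inhibition of PKC-theta.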

UniProt Q04759, sequence (Q04759 whole entry, looked up): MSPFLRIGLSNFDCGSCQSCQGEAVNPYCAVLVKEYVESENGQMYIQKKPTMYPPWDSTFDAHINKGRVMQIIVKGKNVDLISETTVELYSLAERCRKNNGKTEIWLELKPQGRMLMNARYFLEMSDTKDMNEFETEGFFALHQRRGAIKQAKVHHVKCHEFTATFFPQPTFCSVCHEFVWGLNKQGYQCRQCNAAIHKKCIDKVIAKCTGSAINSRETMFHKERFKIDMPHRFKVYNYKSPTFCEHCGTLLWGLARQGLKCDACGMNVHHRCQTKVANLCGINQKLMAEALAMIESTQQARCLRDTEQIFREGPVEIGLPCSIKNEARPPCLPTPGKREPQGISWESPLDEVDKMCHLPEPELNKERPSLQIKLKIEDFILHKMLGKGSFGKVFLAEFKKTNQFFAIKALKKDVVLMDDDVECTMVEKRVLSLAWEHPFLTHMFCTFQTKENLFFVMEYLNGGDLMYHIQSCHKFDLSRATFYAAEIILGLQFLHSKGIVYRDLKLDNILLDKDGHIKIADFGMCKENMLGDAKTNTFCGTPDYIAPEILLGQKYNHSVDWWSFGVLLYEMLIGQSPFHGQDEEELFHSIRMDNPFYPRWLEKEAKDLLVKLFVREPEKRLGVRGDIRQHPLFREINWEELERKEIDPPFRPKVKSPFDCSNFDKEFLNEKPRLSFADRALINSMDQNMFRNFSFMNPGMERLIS

SMILES	inhibition [%]
O=C1NC(=O)C(c2ccccc2)=C1Nc1ccccc1	8.9
CC(C)(C)c1ccc(Oc2nccc(-c3c(-c4ccc(F)cc4)ncn3C3CCNCC3)n2)cc1	3.16
Cc1cccc(Oc2nccc(-c3c(-c4ccc(F)cc4)ncn3C3CCNCC3)n2)c1C	3.35
Fc1ccc(-c2ncn(C3CCNCC3)c2-c2ccnc(Oc3cccc(C(F)(F)F)c3)n2)cc1	2.89
Fc1ccc(-c2ncn(C3CCNCC3)c2-c2ccnc(Oc3cccc(F)c3)n2)cc1	5.32
O=C1NC(=O)C(c2ccccc2Cl)=C1Nc1cc(Cl)c(O)c(Cl)c1	4.4
CS(=O)(=O)c1ccc(Oc2nccc(-c3c(-c4ccc(F)cc4)ncn3C3CCNCC3)n2)cc1	3.24
COc1ccccc1C1=C(Nc2ccccc2)C(=O)NC1=O	7.77
NC(=O)CCc1ccccc1Oc1nccc(-c2c(-c3ccc(F)cc3)ncn2C2CCNCC2)n1	-0.78
Fc1ccc(Oc2nccc(-c3c(-c4ccc(F)cc4)ncn3C3CCNCC3)n2)cc1	2.77
O=C1NC(=O)C(c2cccc([N+](=O)[O-])c2)=C1Nc1cc(Cl)c(O)c(Cl)c1	0.93
Fc1ccc(-c2ncn(C3CCNCC3)c2-c2ccnc(Oc3ccc(Cl)cc3)n2)cc1	2.16
O=C(O)c1ccc(Oc2nccc(-c3c(-c4ccc(F)cc4)ncn3C3CCNCC3)n2)cc1	3.16
